{"source": "the supplement of paper PMC9446081", "note": "The campaign covered roughly 39,000 compounds. About 220 (0.56%) showed activity. This is one part of the list.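 Also: static incubation at 37 °C against the wild-type strain, values averaged over two biological replicates.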", "data": [{"test_system": "Escherichia coli K-12 BW25113", "assay": "relative growth (OD600 normalised to plate interquartile mean) (fraction); higher = less growth inhibition, active = 0.2 or less", "settings": "50 µM; LB; incubation time: overnight (16-24 h)", "values": [{"smiles": "CC(C)c1c(O)ccc2c1CCC1C(C)(C=O)CCCC21C", "note": "(centres undefined)", "relative growth": "inactive: 0.976"}, {"smiles": "O=C(O)[C@@H](O)[C@H](O)C(=O)O", "relative growth": "inactive: 1.02"}, {"smiles": "COc1cccc(C#Cc2cnc3c(c2)C(=O)N([C@@H](C)CO)C[C@@H](C)[C@@H](CN(C)C(=O)C2CCOCC2)O3)c1", "relative growth": "inactive: 0.975"}, {"smiles": "CCCCCCCCCCCC(=O)OCN1C(=O)CCc2ccc(OCCCCN3CCN(c4cccc(Cl)c4Cl)CC3)cc21", "relative growth": "inactive: 1.05"}, {"smiles": "C[C@H]1CN([C@@H](C)CO)C(=O)c2cc(NC(=O)Nc3cccc4ccccc34)ccc2O[C@H]1CN(C)Cc1ccc(C(F)(F)F)cc1", "relative growth": "inactive: 0.989"}, {"smiles": "C#CC1(OC(C)=O)CCC2C3CCC4=CC(=O)CCC4C3CCC21C", "note": "(centres undefined)", "relative growth": "inactive: 1.1"}, {"smiles": "COc1ccccc1CNC(=O)C[C@H]1CC[C@H]2[C@@H](COC[C@@H](O)CN2C(=O)Nc2ccc(F)cc2)O1", "relative growth": "inactive: 0.957"}, {"smiles": "CC(C)(CO)[C@@H](O)C(=O)NCCC(=O)O", "relative growth": "inactive: 1.02"}, {"smiles": "Cc1noc(C)c1NC(=O)Nc1ccc2c(c1)C(=O)N([C@@H](C)CO)C[C@@H](C)[C@H](CN(C)Cc1ccc(-c3ccccc3)cc1)O2", "relative growth": "inactive: 1.02"}, {"smiles": "COCC(=O)Nc1ccc2c(c1)C(=O)N(C)C[C@H](OC)[C@H](C)CN(C(=O)Cc1ccccn1)[C@H](C)CO2", "relative growth": "inactive: 1.01"}, {"smiles": "COc1cccc(-c2cnc3c(c2)C(=O)N([C@H](C)CO)C[C@H](C)[C@H](CN(C)S(=O)(=O)c2ccccc2)O3)c1", "relative growth": "inactive: 0.988"}, {"smiles": "COc1ccc([Si](C)(C)[C@H]2[C@H](CCn3cc([C@H](O)c4ccccc4)nn3)O[C@@]3(C(=O)N(Cc4cccc(N5CCC5=O)c4)c4ccccc43)[C@@H]2C)cc1", "relative growth": "inactive: 1.04"}, {"smiles": "CC1=C(CCC(=O)O)c2cc3[nH]c(cc4nc(cc5[nH]c(cc1n2)c(C)c5C(C)O)C(C)=C4C(C)O)c(C)c3CCC(=O)O", "note": "(centres undefined)", "relative growth": "inactive: 1.06"}, {"smiles": "Cc1ccc(S(=O)(=O)N(C)C[C@@H]2OCCCC[C@@H](C)Oc3ccc(NS(C)(=O)=O)cc3C(=O)N([C@@H](C)CO)C[C@@H]2C)cc1", "relative growth": "inactive: 0.996"}, {"smiles": "C[C@H](CO)N1C[C@H](C)[C@H](CN(C)S(=O)(=O)c2cn(C)cn2)Oc2ccc(NS(=O)(=O)c3cccs3)cc2CC1=O", "relative growth": "inactive: 1.01"}, {"smiles": "CCC(C)C(=O)OC1CC(C)C=C2C=CC(C)C(CCC3CC(O)CC(=O)O3)C21", "note": "(centres undefined)", "relative growth": "inactive: 0.973"}, {"smiles": "C[C@H]1CN([C@@H](C)CO)C(=O)c2cccc(NC(=O)Nc3ccc(F)cc3)c2O[C@H]1CN(C)S(C)(=O)=O", "relative growth": "inactive: 0.989"}, {"smiles": "C[n+]1cc2c3c(ccc2c2ccc4cc5c(cc4c21)OCO5)OCO3.[Cl-]", "relative growth": "inactive: 0.67"}, {"smiles": "CNC[C@H]1Oc2cc(C#CC(C)(C)O)ccc2S(=O)(=O)N([C@H](C)CO)C[C@@H]1C", "relative growth": "inactive: 1.01"}, {"smiles": "C[C@H](CO)N1C[C@H](C)[C@@H](CN(C)C(=O)Nc2ccc(N3CCCCC3)cc2)OCc2cn(nn2)CCCC1=O", "relative growth": "inactive: 0.993"}, {"smiles": "Cc1ccc(S(=O)(=O)N(C)C[C@H]2Oc3ccc(NS(=O)(=O)c4cccs4)cc3CC(=O)N([C@@H](C)CO)C[C@H]2C)cc1", "relative growth": "inactive: 1.02"}, {"smiles": "C[C@@H]1CCCCO[C@@H](CN(C)C(=O)c2ccccc2)[C@@H](C)CN([C@@H](C)CO)C(=O)c2cc(NS(=O)(=O)c3ccc(F)cc3)ccc2O1", "relative growth": "inactive: 1"}, {"smiles": "C[C@@H]1CN([C@H](C)CO)C(=O)c2cc(NC(=O)Nc3cccc4ccccc34)ccc2O[C@H]1CN(C)Cc1ccc(C(F)(F)F)cc1", "relative growth": "inactive: 1.01"}, {"smiles": "C[C@@H]1CN([C@@H](C)CO)C(=O)c2c(c3ccccc3n2C)-c2ccccc2CO[C@@H]1CN(C)CC1CCCCC1", "relative growth": "inactive: 0.999"}, {"smiles": "C[C@@H]1CN([C@@H](C)CO)C(=O)c2cc(NS(=O)(=O)c3ccc(F)cc3)ccc2O[C@@H](C)CCCCO[C@@H]1CN(C)C(=O)Nc1ccc2c(c1)OCO2", "relative growth": "inactive: 1.01"}, {"smiles": "C[C@@H]1CN([C@@H](C)CO)C(=O)Cc2cc(NC(=O)Nc3ccc4c(c3)OCO4)ccc2O[C@@H]1CN(C)Cc1ccc(-c2ccccc2)cc1", "relative growth": "inactive: 1.05"}, {"smiles": "C[C@H](CO)N1C[C@H](C)[C@H](CN(C)S(=O)(=O)c2ccccc2)Oc2ccc(NS(=O)(=O)c3cccs3)cc2C1=O", "relative growth": "inactive: 1.01"}, {"smiles": "C[C@@H]1CN([C@H](C)CO)C(=O)c2cc(NC(=O)Cc3ccccc3)ccc2O[C@@H](C)CCCCO[C@H]1CN(C)C(=O)CCC(F)(F)F", "relative growth": "inactive: 0.981"}, {"smiles": "CC(C)NC(=O)N(C)C[C@H]1Oc2ccc(NS(=O)(=O)c3ccc(Cl)cc3)cc2CC(=O)N([C@H](C)CO)C[C@@H]1C", "relative growth": "inactive: 0.995"}, {"smiles": "COc1ccc(NC(=O)Nc2ccc3c(c2)C(=O)N([C@@H](C)CO)C[C@@H](C)[C@H](CN(C)C(=O)Nc2c(C)noc2C)OCCCC[C@H](C)O3)cc1", "relative growth": "inactive: 1.03"}, {"smiles": "[N-]=[N+]=Nc1ccccc1C[C@@]1(C(=O)NC[C@@H](O)CO)N=C(c2ccc(OCCCO)cc2)O[C@@H]1c1ccccc1", "relative growth": "inactive: 1"}, {"smiles": "C[C@@H]1CN([C@@H](C)CO)C(=O)Cc2cc(NC(=O)Cn3cnnn3)ccc2O[C@H]1CN(C)S(=O)(=O)c1cccs1", "relative growth": "inactive: 1.01"}, {"smiles": "COC(=O)C1CCN(S(=O)(=O)c2c(C)n(C)c(=O)n(C)c2=O)CC1", "relative growth": "inactive: 1.04"}, {"smiles": "C[C@H](CO)N1C[C@H](C)[C@H](CN(C)C(=O)c2cnccn2)Oc2ncc(C#Cc3ccccn3)cc2C1=O", "relative growth": "inactive: 0.995"}, {"smiles": "C[C@@H]1CCCCO[C@@H](CN(C)C(=O)c2ccccc2)[C@@H](C)CN([C@H](C)CO)C(=O)c2cc(NC(=O)CCC(F)(F)F)ccc2O1", "relative growth": "inactive: 0.986"}, {"smiles": "O=C1OC(c2cc(I)c(O)c(I)c2)(c2cc(I)c(O)c(I)c2)c2ccccc21", "relative growth": "inactive: 0.99"}, {"smiles": "COc1ccc(S(=O)(=O)N(C)C[C@@H]2Oc3ccc(NC(=O)CCCN(C)C)cc3C(=O)N([C@H](C)CO)C[C@@H]2C)cc1", "relative growth": "inactive: 0.98"}, {"smiles": "CN1CCN(c2nc3c(c(=O)[nH]c(=O)n3C)n2CC(=O)c2ccc(Cl)cc2)CC1", "relative growth": "inactive: 1.02"}, {"smiles": "COc1ccc(NC(=O)N(C)C[C@@H]2Oc3ncc(C#C[C@@H](C)O)cc3C(=O)N([C@@H](C)CO)C[C@@H]2C)cc1", "relative growth": "inactive: 0.968"}]}]}
